In all, about 33,000 sequences were measured (“E-score (-0.5 to 0.5)”: median about -0.021, highest 2% from about 0.32 on). The list shows a part of the results.
These sequences were tested against T1, Zap1 (UniProt P47043) (assay: PBM E-score (8-mer binding enrichment) (E-score (-0.5 to 0.5)); higher = stronger / more preferred TF binding; most listed sequences are background and not binding sites). Conditions: protein concentration: 200 nM; construct: GST-full length.
T1 sequence: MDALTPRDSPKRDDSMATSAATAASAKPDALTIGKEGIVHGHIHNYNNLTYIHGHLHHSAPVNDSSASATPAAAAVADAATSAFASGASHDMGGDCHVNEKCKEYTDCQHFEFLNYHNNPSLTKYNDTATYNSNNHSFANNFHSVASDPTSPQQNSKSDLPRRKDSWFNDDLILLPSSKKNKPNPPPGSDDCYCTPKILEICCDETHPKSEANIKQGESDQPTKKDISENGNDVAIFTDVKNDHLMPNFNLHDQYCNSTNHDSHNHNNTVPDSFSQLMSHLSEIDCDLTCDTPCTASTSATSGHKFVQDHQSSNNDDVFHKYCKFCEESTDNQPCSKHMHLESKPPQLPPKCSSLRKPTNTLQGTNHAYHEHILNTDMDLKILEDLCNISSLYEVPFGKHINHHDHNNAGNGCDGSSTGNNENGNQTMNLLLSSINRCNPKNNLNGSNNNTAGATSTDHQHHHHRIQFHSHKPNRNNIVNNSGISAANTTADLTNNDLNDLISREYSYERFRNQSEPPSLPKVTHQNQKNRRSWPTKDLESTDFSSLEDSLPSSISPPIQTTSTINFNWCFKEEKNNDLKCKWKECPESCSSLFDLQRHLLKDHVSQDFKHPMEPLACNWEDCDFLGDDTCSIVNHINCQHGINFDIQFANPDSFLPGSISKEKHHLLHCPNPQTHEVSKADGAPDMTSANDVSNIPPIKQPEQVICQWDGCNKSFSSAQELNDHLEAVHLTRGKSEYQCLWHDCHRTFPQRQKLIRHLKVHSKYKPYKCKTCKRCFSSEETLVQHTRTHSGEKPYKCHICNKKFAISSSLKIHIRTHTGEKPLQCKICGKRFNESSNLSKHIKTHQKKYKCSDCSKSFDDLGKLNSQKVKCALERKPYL
Protocol: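 Universal 'all 10-mer' protein binding microarrays (Agilent AMADID 015681) probed with GST-tagged S. cerevisiae TFs (full-length or DBD) made by in vitro transcription/translation (PURExpress), about 100-200 nM. Bound TF was detected with fluorescent anti-GST. Each ungapped 8-mer (which stands for itself and its reverse complement) is scored by the PBM enrichment score (E-score), a modified Wilcoxon-Mann-Whitney statistic from -0.5 to +0.5, computed with the Universal PBM Analysis Suite. Scale: above 0.35 generally sequence-specific binding.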

Sequence	PBM E-score
CTCCCAAG	-0.0957
GTCCTTCA	0.176
AAGGACTT	-0.147
AGCCTCAT	-0.1
ATCTCATC	-0.147
AAACTCTC	-0.0702
CGAACCCA	-0.118
CATGGTTA	0.415
AGTGTGAG	-0.096
CTGTACGA	-0.172
CAAATCCA	0.0801
CGCCACCG	-0.0683
AAGGGTCT	0.136
ACCAGTAG	-0.00366
CTTGGATA	-0.0692
ATTGGCGA	-0.121
GTTTAGGA	-0.105
AGAGCGGA	-0.2
AATCACCT	0.215
AGGACGTC	-0.0914
AGCAGAGC	-0.285
ACAATGCC	-0.126

Sequence	PBM E-score
GCCTTGCA	-0.145
ATAAAGGG	0.113
AGCATCTC	-0.169
CCTCTAAA	0.0486
GCACAAAA	0.214
CACCATCG	-0.208
ACCCTCTC	0.121
GACTGTAC	-0.147
CTCGCAAA	-0.0959
GTCCCTAA	0.109
CCGATTCG	0.0615
ACGGTCAA	0.177
CCTGGGAA	0.107
AACGATAA	-0.0511
CATTACGA	0.043
ATAACCCG	0.442
CCTGATCA	-0.103
CGTCATCC	-0.0469
AAAGGATC	-0.0691
CGACCATA	0.0398
ATACGTCG	-0.263
AGCCCGCT	-0.401

Sequence	PBM E-score
TACAAATA	0.0955
AAAGACAT	-0.236
AAAGTTAC	0.224
AGGGGCAT	-0.0286
CGGACCAC	0.0856
CATTTGTA	0.0822
AGACTGAG	-0.249
GGTATTAA	0.254
ACGGACTG	-0.178
CGCCTGCA	-0.183
CGAACTAA	0.137
GACGACGA	-0.144
GGAAATCC	0.0669
AAAAACCA	0.301
GCGATAAC	0.268
CATGTGAG	-0.292
CCGTATGC	-0.226
CAGAAGGA	-0.165
GCGCGACC	0.168
GTCCATGA	-0.0462
AACCTAAG	0.198
AGCCCTCG	-0.161

Sequence	PBM E-score
CAGTTAAA	0.189
TTCTTAAA	-0.028
AACAGATG	-0.00675
CCCGCAAA	0.201
AAACAAAA	0.141
TACCTAGA	0.163
AACTAGGG	0.173
ACAAAAAA	0.317
CACTGTCA	0.0475
CTCGCCTA	0.103
CGCGAGAA	-0.129
CAGGAAAA	0.109
AATGTGTA	-0.00653
GGAGACAC	-0.127
CACTATAC	-0.00462
AGGGACGG	-0.345
CGCCGCGC	-0.0986
CAGAAGCC	-0.173
TATCGCAA	0.152
GAGTGAAC	-0.0653
